Measurements reported in paper PMC3914973, “A Regulatory Feedback Loop between HIF-1α and PIM2 in HepG2 Cells” (PLoS ONE, 2014).

Molecular target: T1, His-PIM2 protein (human, UniProt Q9P1W9 1-311)
T1 construct: Serine/threonine kinase PIM2; also called His-tagged PIM2
Assay: pull-down; GST pull-down: His-PIM2 mixed with GST or GST-HIF-1α (575-826aa) in PBS binding buffer pH 7.4 at 4°C for 2 h, Glutathione-Sepharose 4B beads 1 h, washed five times with PBS, western blot
Details: both partners purified

- binding result: binds
B1: GST-HIF-1α ([…]aa) fusion protein (domain or fragment)
chain: not shown
notes: source: E. coli BL21 (DE3), purified (Glutathione-Sepharose 4B)
